Source: the RNAGym collection of RNA variant scans (doi:10.7554/elife.90254)
Read counts are not given, so values of variants with three or more changes are uncertain.

B1: LINE1-full (parent)
chain: UACGUAGGUGGUUUUCCCCUGAUAGUGCUAAGGGGGCCUGGAAGUUUGGACUGGGCAGAGCUCAACACAGCGUGGCAAAGUGGCUGUGGCUAGACUGCCUCUCUGGAUUCCUCGUCACUCAGCAGGGCAUCUCUGAGAGAAAUGCC

Variants of: B1
Test: self-cleavage, relative activity (ratio to wild type); higher = more cleavage; in vitro, sequencing; the parent is a self-cleaving ribozyme

Row | Variant | self-cleavage
1 | A78G A94G C120U | 0.23
2 | U20A U39A A50G A78U | 1.61
3 | U14C A94G U108C | 0
4 | A24G U73A G88A A94G | 0.05
5 | U15C A30U U96C | 0.22
6 | U46C A67U U87C | 0
7 | A42U U52C U134C | 1.11
8 | U81C A94U U100C A124U | 0.77
9 | C3U U73A U81G A129U A136G | 0.68
10 | U13A A30G A42G | 0.61
11 | U9G U12A G35A A42U U62A A67G A107G U115A | 0.16
12 | U112C A129U A140G | 0.97
13 | A107G A117C U119C | 1.45
14 | G35A U73C A124U U130C | 2.1
15 | A22U U29C U96C | 0.66
16 | U39C C68A U85C A129G A140G | 0.05
17 | U26C U52C A64U G72A U119C C123U | 0.4
18 | U9C A24G U81A | 1.31
19 | A24G A77G A78U | 2.15
20 | U20A U29C U115C A136G | 2.37
21 | U12G U47C C98U | 0.9

Row | Variant | self-cleavage
22 | C37A U45C A59G | 0.08
23 | A79U U102C G122U | 1.5
24 | A59U U62C A79G U102A | 0
25 | U73C A79G C131U | 1.99
26 | C3U A42G A107G | 0.35
27 | G33U C61U C68U A69G U91C A94G | 0.06
28 | U81A U87C U102A A117G | 0.1
29 | U47A G60A A117U | 0.03
30 | G32A A50G U85C U87C U132C A136G | 0
31 | U9A U46C U112C | 1.48
32 | U46C A77C U132C | 1.5
33 | U20C A78G A121U | 0.86
34 | A24U U47A A57G U143C | 0.33
35 | A2G A77G A79U U115A A129U | 0
36 | U13C U52A U134C A141C | 1.44
37 | A42G A67U U108A | 0.07
38 | A77G U109C U143C | 1.55
39 | U14C A78G U102C G122A | 1.25
40 | A6G U112C G122U A140G | 1.21
41 | U12C U87C G105A | 0.2
42 | U115C A117G A141G | 1.62

Row | Variant | self-cleavage
43 | A2G U12A A77G U119C | 1.56
44 | U20C U29A A65G | 0.16
45 | U9A A67G U100A U134A U143C | 0
46 | U5C A57G U109A | 0.97
47 | U13C U23C U96C A107G A140G | 0
48 | U12C U47C A69G A129U | 0.33
49 | G32A C38U A67G U115C | 0.38
50 | A30U A77G A140G | 1.51
51 | U12C U96C A142G | 0
52 | A50G A77U A141G | 1.25
53 | U1C U12C A24U U96C A136G | 0.22
54 | U1C G4A A121G | 0.52
55 | U15C A42U U87C | 0.31
56 | A50G U87A A92G A141G | 0.26
57 | A30U U104A A140G A142C | 0.69
58 | C38U G48A C66U | 0.04
59 | C116U U134A A140G A142G | 0.28
60 | U14C U47C A57G G83U | 0.54
61 | U5C U9C A57U U73A A77G C145U | 0.12
62 | A6U U20A A141G | 1.71
63 | A50G A92G U132C | 0

Row | Variant | self-cleavage
64 | A69G U73G C95U | 0.04
65 | U23C A77U A141U | 1.68
66 | U1C U9G G72A | 0.68
67 | A22G U26C C38U U130C A140U | 1.61
68 | C17U U20G A30G | 0.61
69 | A22G C113U A142G | 0.82
70 | G34U U47C A64G | 0
71 | A22G U109C A129G | 1.62
72 | U13C U14C U46C | 1.3
73 | U15C U109A U130C | 1.71
74 | U9A A43G G97U U143C | 0.05
75 | U29C U46A G58A | 0
76 | A22G G125U G126A | 1.65
77 | U20C U100C U112C | 1.97
78 | G54A A64G C131G | 0.2
79 | U62C A67G A140G | 0.17
80 | U1C U47A A67G | 0.13
81 | U15A G48U A138U | 0.59
82 | U12A C17U G105U | 0.61
83 | U39C A78G A107G | 2.59
84 | U46C A50U A65G | 0
